Publication PMC4336329 (PLoS ONE, 2015)
Among all 310,000 compounds or so, about 2,200 (0.71%) showed an effect of 50% or more. Effects have a minus sign here. The list shows a part of the results.

The compounds below were run against human ether-à-go-go-related gene (hERG) potassium channel (human, UniProt Q12809) (assay: primary screen, population patch clamp on CHO cells stably expressing hERG).
human ether-à-go-go-related gene (hERG) potassium channel, sequence (Q12809 whole entry, looked up): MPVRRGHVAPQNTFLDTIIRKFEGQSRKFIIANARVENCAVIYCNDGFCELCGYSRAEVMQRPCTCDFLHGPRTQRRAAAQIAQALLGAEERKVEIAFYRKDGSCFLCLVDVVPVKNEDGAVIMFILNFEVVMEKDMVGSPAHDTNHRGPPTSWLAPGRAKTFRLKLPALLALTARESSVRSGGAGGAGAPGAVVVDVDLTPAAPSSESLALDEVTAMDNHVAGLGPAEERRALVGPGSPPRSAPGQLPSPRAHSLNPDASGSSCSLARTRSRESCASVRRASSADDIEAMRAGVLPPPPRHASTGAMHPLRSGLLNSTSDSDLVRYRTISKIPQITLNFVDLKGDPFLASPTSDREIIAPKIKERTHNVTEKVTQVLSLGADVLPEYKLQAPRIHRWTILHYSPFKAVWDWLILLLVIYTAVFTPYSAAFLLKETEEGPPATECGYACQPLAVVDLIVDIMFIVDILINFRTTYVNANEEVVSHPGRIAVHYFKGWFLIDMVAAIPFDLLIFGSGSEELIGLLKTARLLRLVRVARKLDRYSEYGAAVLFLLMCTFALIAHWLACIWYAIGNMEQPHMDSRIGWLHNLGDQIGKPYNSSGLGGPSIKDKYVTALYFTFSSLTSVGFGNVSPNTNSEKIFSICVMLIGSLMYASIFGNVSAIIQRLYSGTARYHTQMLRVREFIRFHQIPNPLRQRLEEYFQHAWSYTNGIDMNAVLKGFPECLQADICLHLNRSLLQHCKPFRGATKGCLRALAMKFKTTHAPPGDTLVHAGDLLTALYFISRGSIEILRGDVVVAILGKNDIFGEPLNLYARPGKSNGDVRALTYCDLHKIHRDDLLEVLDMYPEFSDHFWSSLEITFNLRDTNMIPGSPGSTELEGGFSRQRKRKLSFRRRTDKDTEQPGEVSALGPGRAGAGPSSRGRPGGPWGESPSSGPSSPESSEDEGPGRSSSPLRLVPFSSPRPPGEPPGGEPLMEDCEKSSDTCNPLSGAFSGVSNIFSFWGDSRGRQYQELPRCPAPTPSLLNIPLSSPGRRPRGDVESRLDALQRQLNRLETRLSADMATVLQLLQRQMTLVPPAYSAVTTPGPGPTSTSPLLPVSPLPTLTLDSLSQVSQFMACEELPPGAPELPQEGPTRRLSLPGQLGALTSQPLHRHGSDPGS

| Compound | hERG current change (%, negative = inhibition) at 1uM [%] |
| --- | --- |
| COC(=O)CNC(=O)CN1C(=O)NC2(CCCc3ccccc32)C1=O (stereo not shown) | 11.7 |
| COc1cc(C(c2c(O)cc(C)[nH]c2=O)c2c(O)cc(C)[nH]c2=O)ccc1O | -0.407 |
| Cc1onc(-c2ccccc2Cl)c1C(=O)OCc1nnc(-c2ccccc2)o1 | 3.84 |
| COc1ccc(-n2c(SCC(=O)Nc3ccccc3)nc3c(c2=O)SCC3)cc1 | 10.7 |
| COc1ccc(NC(=O)CSc2ccc3nnc(-c4ccccn4)n3n2)cc1OC | 7.61 |
| CCc1ccc(CN(C(=O)COc2c(C)cccc2C)C2CCS(=O)(=O)C2)cc1 (stereo not shown) | 16.6 |
| CC(=O)Nc1ccc(S(=O)(=O)NCCC(=O)NCc2ccncc2)cc1 | -20.4 |
| CCOC(=O)c1c(C2COc3ccccc3O2)csc1NC(=O)c1ccccc1 (stereo not shown) | 23.3 |
| COc1cc(C(=O)N2CCN(C(=O)c3ccccc3)CC2)cc(OC)c1OC | 9.28 |
| O=C(NCCCn1ccnc1)c1ccc(NS(=O)(=O)c2ccc(Cl)c(Cl)c2)cc1 | 19 |
| N#Cc1ccc(OCCN2CCc3ccccc3C2)cc1 | -2.03 |
| COc1ccc(OC)c(S(=O)(=O)Nc2ccc(CC(=O)O)cc2)c1 | -5.58 |
| CC1(C)CC(=NNC(=O)c2n[nH]c3c2CCC3)CC(C)(C)N1 | 10.1 |
| CCOc1ccc(CCNc2nc3ccccc3n3c(C)nnc23)cc1OCC | 9.92 |
| CC(=O)c1cccc(N(CC(=O)Nc2ccc(S(=O)(=O)N3CCCC3)cc2)S(C)(=O)=O)c1 | 10.5 |
| Oc1ccc(Cl)cc1-c1cc(-c2ccco2)[nH]n1 | 10.7 |
| COc1ccc(S(=O)(=O)N/N=C(/C)c2ccc(Cl)cc2)cc1 | 4.56 |
| O=C(/C=C/c1ccccc1)C1=C(O)C(=O)N(CCO)C1c1ccc2c(c1)OCO2 (stereo not shown) | 16.7 |
| Cc1ccc(/C=C/C(=O)c2ccc(N3CCOCC3)cc2)s1 | 12.6 |
| Cc1ccc(/C=N/NC(=O)c2c(C)nc3ccc(Br)cn23)cc1 | 13.3 |
| Cc1cc(C(=O)Nc2ccc(S(=O)(=O)N3CCCC3)cc2)no1 | 10.3 |
| CCCOC(=O)c1c(-c2ccccc2)nc(CC)c(C(=O)SCC)c1CCC | 18.4 |

| Compound | hERG current change (%, negative = inhibition) at 1uM [%] |
| --- | --- |
| O=C(CSc1nc2ccccc2c(=O)n1-c1ccc(F)cc1)Nc1ccc(C(=O)O)cc1 | 2.41 |
| CCOC(=O)c1nc(NCc2cccnc2)c2ccccc2n1 | 5.16 |
| O=C(COC(=O)c1cc([N+](=O)[O-])ccc1N1CCOCC1)c1ccc(OC(F)F)cc1OC(F)F | 13.7 |
| C=C1C(C(=O)N2CCOCC2)C1C(=O)N1CCOCC1 (stereo not shown) | 10.5 |
| CCCNC(=O)Cn1nc(C(F)(F)F)c2c1CCCC2 | 13.5 |
| Cc1ccc(Cl)cc1N1CCN(C(=O)C2CCCN(S(=O)(=O)c3cnc[nH]3)C2)CC1 (stereo not shown) | 12.4 |
| Cc1ccc2nc(NC(=O)c3ccc(NS(=O)(=O)c4cccs4)cc3)sc2c1 | 8.33 |
| CCN(c1ccccc1)S(=O)(=O)c1cccc(C(=O)N(C)CCOc2ccccc2)c1 | 12.8 |
| Cc1ccc(S(=O)(=O)N(C)c2ccc3sc(C)nc3c2)cc1 | 1.46 |
| COc1ccc(CCN2C(=O)CC(Cc3ccc(Br)cc3)C2=O)cc1OC (stereo not shown) | -1.53 |
| Cn1c(CNC(=O)CNC(=O)c2ccc(F)cc2)cc(=O)n(C)c1=O | -15.4 |
| COc1ccc(-c2[nH]ncc2CN2CCCCCCC2)c(OC)c1 | -5.32 |
| CS(=O)(=O)Nc1ccc(C(=O)Nc2ccc3ccccc3c2)cc1 | 14.3 |
| C=CCn1c(SCC(=O)Nc2cccnc2Cl)nnc1-c1ccc(C(C)(C)C)cc1 | 9.68 |
| CC(C)Oc1ccc(/C(O)=C2/C(=O)C(=O)N(CCN3CCNCC3)C2c2ccc(C(C)C)cc2)cc1 (stereo not shown) | 23.3 |
| CC(C)c1nnc(NC(=O)CCC(=O)NCc2ccc(F)cc2)s1 | 28.9 |
| Br.N=C1CCCN1CC(=O)c1cccs1 | -5.83 |
| O=C(Cc1ccccc1)NNc1ccc2ccccc2c1 | -1.2 |
| COC(=O)c1ccccc1NC(=O)COC(=O)CO/N=C(\C)c1ccc2c(c1)OCO2 | 21.2 |
| c1coc(-c2nc3nc4ccccc4nc3n2CC2CCCO2)c1 (stereo not shown) | 4.02 |
| CN(CC(=O)Nc1ccccc1[N+](=O)[O-])Cc1ccc(Br)cc1 | 11.5 |
| COc1ccc(CNC(=O)c2nn(C)c3c2CS(=O)(=O)c2ccccc2-3)cc1 | 13.4 |

| Compound | hERG current change (%, negative = inhibition) at 1uM [%] |
| --- | --- |
| CCCCOC(=O)C1=C(C)Nc2ncnn2C1c1cc(OC)ccc1OC (stereo not shown) | 0.0597 |
| COc1cc2nc(N(CCCN(C)C)C(=O)c3ccc(S(=O)(=O)N4CCc5ccccc5C4)cc3)sc2cc1OC.Cl | 0.119 |
| O=C(/C=C/c1ccccc1)Nc1cccc(S(=O)(=O)Nc2ccccc2F)c1 | 12.2 |
| CC1(C)CC(NC(=O)c2cccc(Cl)c2)CC(C)(C)N1 | 12.2 |
| C=CCN=C1CC(C)(C)CC(=O)/C1=C(/O)CCC(=O)OC | 9.05 |
| CCN(CCCNC(=O)CNC(=O)Cn1cnc2ccccc2c1=O)c1cccc(C)c1 | 15.7 |
| CC(C)CCNC(=O)c1ccc(-n2cnc3cccnc32)cc1 | 14.7 |
| O=C(CCN1C(=O)c2ccccc2C1=O)C1=NN[C@@H]2C(=O)N(c3ccc(F)cc3)C(=O)[C@H]12 | 11.3 |
| CCOc1ccc(OCc2cccc(C(=O)O)c2)cc1 | 5.81 |
| Nc1ncc(Br)cc1S(=O)(=O)NCCC(=O)Nc1cccc(Cl)c1 | 6.21 |
| COCCN1CCN(C(=O)c2ccc3c(c2)S(=O)(=O)c2ccccc2C3=O)CC1 | 10.8 |
| Nc1cc(-c2cccc([N+](=O)[O-])c2)[nH]n1 | -2.3 |
| CCN(CC)C(=O)C(C)OC(=O)c1ccc(O)cc1 (stereo not shown) | 2.6 |
| CC(C)c1nnc(NC(=O)C2CCCCC2)s1 | 5.88 |
| CCOC(CNC(=O)c1cccc([N+](=O)[O-])c1)OCC | 10.3 |
| O=C(COC(=O)c1ccc(Br)cc1)NCCN1C(=O)CSC1=O | 17.4 |
| O=C(COc1ccc2c3c(c(=O)oc2c1)CCCC3)N1CCN(c2ccc(F)cc2)CC1 | 7.61 |
| Cc1ccc(NC(=O)CSCC(=O)NCCc2ccccc2)c(C)c1 | 7.16 |
| N/C(=N\OC(=O)Cc1ccccc1)c1ccc(Br)cc1 | 8.13 |
| Cc1ccc(OCC(=O)Nc2ccc(-c3nc4ncccc4o3)cc2)c(C)c1 | 20.1 |
| O=C(Cn1nnc2ccccc21)OCC(=O)c1ccc(F)cc1 | 10.4 |
| CCc1ccc(-c2cn3nc(C)c(C)nc3n2)cc1 | 9.99 |

| Compound | hERG current change (%, negative = inhibition) at 1uM [%] |
| --- | --- |
| CCc1c(C)nc(SCC(=O)Nc2ccc3c(c2)OCCO3)[nH]c1=O | 10.8 |
| Cc1ccc(N2C(=O)NC(=O)/C(=C\c3ccc([N+](=O)[O-])o3)C2=O)cc1 | 12.3 |
| CCOc1ccc2c(C)c(C)c(=O)oc2c1OCC | 3.45 |
| COc1ccnc(NCc2ccc(Cl)cc2)c1C#N | 16.1 |
| COc1ccc(OC)c2c1sc(=NC(=O)c1cccc(N3C(=O)CCC3=O)c1)n2C | 10.9 |
| O=C(Nc1ccc(Cl)c(Cl)c1)Nc1nccs1 | 5.62 |
| CC(=O)N(CCc1cccc(C)c1)Cc1cc2ccc(C)cc2[nH]c1=O | 0.292 |
| CCOCC(=O)Nc1ccc(F)c(F)c1 | 1.65 |
| Cc1cccc(-n2ncc3c(NC(C)C)ncnc32)c1 | 12.7 |
| COc1ccccc1NC(=O)Nc1nnc(C(C)C)s1 | 4.9 |
| Cc1cccc(N2CCN(C(=O)CCNC(=O)Cn3ccc4ccccc4c3=O)CC2)c1C | 0.73 |
| COc1ccccc1NS(=O)(=O)c1cc(-c2cc(C)no2)ccc1OC | 8.25 |
| CCCCCn1c(=O)[nH]c2cc(C(=O)O)ccc2c1=O | 16.4 |
| COc1ccc(C(=O)Nc2c(C)ccc3nsnc23)cc1[N+](=O)[O-] | 3.23 |
| O=C(CSc1ncc(-c2ccc(F)cc2)n1Cc1ccco1)Nc1nccs1 | 4.47 |
| Cc1onc(-c2ccccc2Cl)c1C(=O)N1CCN(S(=O)(=O)c2ccc(F)c(F)c2)CC1 | 11.5 |
| CCOc1ccc(CCNC(=O)c2ccc(C)c(NC3=NC4CS(=O)(=O)CC4S3)c2)cc1 (stereo not shown) | 17.7 |
| Cn1ncc2c(Nc3cccc(C(=O)O)c3)ncnc21 | 4.58 |
| Cc1ccnc(NC(=O)c2c(-c3ccccc3Cl)noc2C)c1 | 5.64 |
| Cc1ccc(NC(=O)Cn2ccc(=O)[nH]c2=O)cc1 | 16.3 |
| Cc1ccccc1NC(=O)CSc1nc2ccccc2o1 | -5.05 |
| COc1ccc(NC(=O)CSc2nnnn2C)cc1S(=O)(=O)N1CCCCC1 | 7.46 |
